Results published in patent US5883107A, “Arginine mimic derivatives as enzyme inhibitors” (Corvas International, Inc., priority 1995, dated 1999).

Experiments:
[1] = test system: citrated human plasma
[2] = test system: citrated rat plasma

CCCC(CCC)C(=O)N[C@@H](CC(=O)OC)C(=O)N1CCC[C@H]1C(=O)N[C@H](C=O)CC1CCCN(C(=N)N)C1 (single isomer, unassigned) [Isomer 11B, alpha-N-(propylpentanoyl)-aspartyl(beta-methyl ester)-prolyl-3-[3-piperidyl-(N-guanidino)]-L-alaninal]
prolongation of APTT [1]: prolonged the APTT in a dose dependent manner | prolongation of APTT [2]: prolonged the APTT in a dose dependent manner
